Publication PMC9870916
Results are given in words; binding and its absence hold for the method and conditions named. For some assays here: In cells and extracts the contact can be indirect. Some entries that bind do so weakly or less than the wild type. For some assays here: Tags and fused reporters may be left off the sequences shown.

Chains of the proteins cited; added tags and fusions are not shown. Residues count along the entry.
UniProt P56480, residues 47-529: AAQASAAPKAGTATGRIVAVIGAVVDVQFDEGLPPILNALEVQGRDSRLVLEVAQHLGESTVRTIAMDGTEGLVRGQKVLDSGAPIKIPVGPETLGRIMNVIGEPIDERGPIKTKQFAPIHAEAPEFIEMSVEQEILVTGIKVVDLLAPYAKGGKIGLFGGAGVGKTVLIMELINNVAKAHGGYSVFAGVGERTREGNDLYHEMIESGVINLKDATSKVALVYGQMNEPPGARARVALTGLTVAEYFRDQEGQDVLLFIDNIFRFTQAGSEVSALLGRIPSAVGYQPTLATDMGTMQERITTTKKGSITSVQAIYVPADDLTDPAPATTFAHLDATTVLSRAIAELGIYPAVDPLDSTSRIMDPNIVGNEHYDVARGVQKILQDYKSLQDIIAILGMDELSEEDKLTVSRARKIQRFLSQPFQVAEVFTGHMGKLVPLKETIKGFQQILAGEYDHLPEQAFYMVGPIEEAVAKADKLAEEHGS
UniProt P05496, residues 62-136: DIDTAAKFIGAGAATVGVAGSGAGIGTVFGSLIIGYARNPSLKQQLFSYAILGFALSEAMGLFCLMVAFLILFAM

T1: ATP synthase oligomycin sensitivity conferring protein (OSCP) (human (endogenous in HeLa)) (UniProt P48047)
T1 sequence: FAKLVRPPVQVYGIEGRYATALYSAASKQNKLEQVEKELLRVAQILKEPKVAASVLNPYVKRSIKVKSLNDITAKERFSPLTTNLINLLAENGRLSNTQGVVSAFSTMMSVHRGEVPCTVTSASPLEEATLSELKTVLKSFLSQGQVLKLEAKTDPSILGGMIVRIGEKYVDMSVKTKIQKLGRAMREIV

T2: f subunit of ATP synthase (human (endogenous in HeLa)) (UniProt P56134)
T2 sequence: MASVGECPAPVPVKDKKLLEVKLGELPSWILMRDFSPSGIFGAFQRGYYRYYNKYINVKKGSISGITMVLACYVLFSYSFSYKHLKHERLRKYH

T3: IF1-CT (A44-D81) (human) (UniProt Q9UII2)
T3 sequence: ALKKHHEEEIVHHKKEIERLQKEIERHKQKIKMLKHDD

T4: IF1-NT (G1-E40) (human) (UniProt Q9UII2)
T4 sequence: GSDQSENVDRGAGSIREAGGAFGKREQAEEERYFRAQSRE


How the values were obtained:
[1] = substrate: T5, OSCP subunit of ATP synthase, endogenous in MEFs (mouse (endogenous in MEFs)) (UniProt Q9DB20); experiment: co-IP; OSCP subunit immunoprecipitated (protein G dynabeads) from permeabilized MEFs (pcDNA3.1, IF1 WT, IF1 Y33R) kept in state 3 buffer; blot for OSCP and IF1
T5 sequence: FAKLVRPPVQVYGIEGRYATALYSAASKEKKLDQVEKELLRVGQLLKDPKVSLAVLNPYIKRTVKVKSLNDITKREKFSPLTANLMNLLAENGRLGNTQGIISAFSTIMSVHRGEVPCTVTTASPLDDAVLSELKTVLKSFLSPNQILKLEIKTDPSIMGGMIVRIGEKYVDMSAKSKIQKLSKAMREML

[2] = target: β subunit of ATP synthase, endogenous in MEFs (mouse (endogenous in MEFs)) (UniProt P56480); experiment: co-IP; β subunit immunoprecipitated (protein G dynabeads) from permeabilized MEFs (pcDNA3.1, IF1 WT, IF1 Y33R) kept in ATP hydrolysis buffer; blot for β and IF1
[3] = target: T1, ATP synthase oligomycin sensitivity conferring protein (OSCP) (human (endogenous in HeLa)); experiment: co-IP; OSCP immunoprecipitated (anti-OSCP, protein G dynabeads) from freshly prepared HeLa mitochondria kept in state 3 (ATP synthesis) buffer; IP buffer with 0.5% Triton X-100, 0.25% SDS, pH 7.4; blot for IF1
[4] = target: T1, ATP synthase oligomycin sensitivity conferring protein (OSCP) (human (endogenous in HeLa)); experiment: co-IP; OSCP or β subunit immunoprecipitated (protein G dynabeads) from permeabilized HeLa cells kept in state 3 buffer; IP buffer with 0.5% Triton X-100, 0.25% SDS, pH 7.4; blot for IF1; also with increasing doses of Bz423 (IF1 displaced dose-dependently)
[5] = target: T2, f subunit of ATP synthase (human (endogenous in HeLa)); experiment: proximity ligation; Duolink In Situ Red; CTR and IF1 KO HeLa cells fixed with 2% paraformaldehyde, permeabilized with 0.15% Triton X-100; pairs of mouse and rabbit primary antibodies; red dots per nucleus
[6] = target: T1, ATP synthase oligomycin sensitivity conferring protein (OSCP) (human (endogenous in HeLa)); experiment: as above
[7] = target: c subunit of ATP synthase (human (endogenous in HeLa)) (UniProt P05496); experiment: as above
IF1-CT (A44-D81) (human) = target: T3, IF1-CT (A44-D81) (human); experiment: NMR titration; 1H-15N SOFAST-HMQC of 15N-labelled IF1-CT without and with 12-fold molar excess of unlabelled OSCP-NT or OSCP-CT; both purified
IF1-NT (G1-E40) (human) = target: T4, IF1-NT (G1-E40) (human); experiment: NMR titration; 1H-15N SOFAST-HMQC of 15N-labelled IF1-NT without and with 15-fold molar excess of unlabelled OSCP-NT or OSCP-CT; for OSCP-NT: 30 μM IF1-NT, 450 μM OSCP-NT, 50 mM phosphate, 300 mM NaCl, pH 7.0, 7 °C; both purified

Binder | binding [1] | binding [2] | binding (IF1-CT (A44-D81) (human)) | also measured
IF1, endogenous in mouse embryonic fibroblasts (protein, UniProt O35143 26-106) VSDSSDSMDTGAGSIREAGGAFGKREKAEEDRYFREKTKEQLAALRKHHEDEIDHHSKEIERLQKQIERHKKKIQQLKNNH | binds | binds | – | –
human IF1 wild type overexpressed in MEFs (IF1 WT) (protein, UniProt Q9UII2-1 26-106) GSDQSENVDRGAGSIREAGGAFGKREQAEEERYFRAQSREQLAALKKHHEEEIVHHKKEIERLQKEIERHKQKIKMLKHDD | binds | binds | – | –
human IF1 mutant Y33R overexpressed in MEFs (IF1 Y33R) (protein, UniProt Q9UII2-1 26-106) GSDQSENVDRGAGSIREAGGAFGKREQAEEERRFRAQSREQLAALKKHHEEEIVHHKKEIERLQKEIERHKQKIKMLKHDD | binds | no binding | – | –
inhibitor factor 1 (IF1) (protein, UniProt Q9UII2 26-106) GSDQSENVDRGAGSIREAGGAFGKREQAEEERYFRAQSREQLAALKKHHEEEIVHHKKEIERLQKEIERHKQKIKMLKHDD | – | – | – | binding [3]: binds; binding [4]: binds; binding [5]: no binding; binding [6]: binds; binding [7]: no binding
OSCP-NT (R6-G114) (domain or fragment, UniProt P48047 29-137) RPPVQVYGIEGRYATALYSAASKQNKLEQVEKELLRVAQILKEPKVAASVLNPYVKRSIKVKSLNDITAKERFSPLTTNLINLLAENGRLSNTQGVVSAFSTMMSVHRG | – | – | no binding (tested: 12-fold molar excess of OSCP-NT) | –
OSCP-CT (G114-V190) (domain or fragment, UniProt P48047 137-213) GEVPCTVTSASPLEEATLSELKTVLKSFLSQGQVLKLEAKTDPSILGGMIVRIGEKYVDMSVKTKIQKLGRAMREIV | – | – | no binding (tested: 12-fold molar excess of OSCP-CT) | binding (IF1-NT (G1-E40) (human)): no binding (tested: 15-fold molar excess of OSCP-CT)
